The values that follow come from publication PMC5386880.

Amino acid sequences for entries named in this document (tags omitted).
UniProt P51140: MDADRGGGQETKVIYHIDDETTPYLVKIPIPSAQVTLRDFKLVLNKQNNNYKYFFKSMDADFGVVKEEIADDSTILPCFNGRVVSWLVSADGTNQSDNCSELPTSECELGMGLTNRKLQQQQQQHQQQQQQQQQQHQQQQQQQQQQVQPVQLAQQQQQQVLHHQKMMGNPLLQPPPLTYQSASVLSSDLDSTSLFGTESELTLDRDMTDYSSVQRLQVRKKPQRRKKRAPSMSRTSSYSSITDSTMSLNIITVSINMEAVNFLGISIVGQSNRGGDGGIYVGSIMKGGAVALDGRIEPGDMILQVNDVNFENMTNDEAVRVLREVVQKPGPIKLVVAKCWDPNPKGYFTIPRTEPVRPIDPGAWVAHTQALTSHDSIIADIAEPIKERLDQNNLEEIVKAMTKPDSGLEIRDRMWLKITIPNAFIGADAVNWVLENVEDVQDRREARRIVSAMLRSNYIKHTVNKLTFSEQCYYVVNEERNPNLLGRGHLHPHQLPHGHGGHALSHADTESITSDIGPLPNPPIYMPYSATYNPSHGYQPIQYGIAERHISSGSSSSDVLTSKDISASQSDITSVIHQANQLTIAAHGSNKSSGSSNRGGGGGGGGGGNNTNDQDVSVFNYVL

These are yes or no findings as the source states them, for the method shown. For part of these data: Binding seen in cells or lysates may run through a third protein. Some entries that bind do so weakly or less than the wild type. Sequences can lack the tags named with a protein.

The target of experiment [1] is T1, human WDPCP (frtz homolog), yeast two-hybrid fusion (human) (UniProt O95876).
T1 sequence: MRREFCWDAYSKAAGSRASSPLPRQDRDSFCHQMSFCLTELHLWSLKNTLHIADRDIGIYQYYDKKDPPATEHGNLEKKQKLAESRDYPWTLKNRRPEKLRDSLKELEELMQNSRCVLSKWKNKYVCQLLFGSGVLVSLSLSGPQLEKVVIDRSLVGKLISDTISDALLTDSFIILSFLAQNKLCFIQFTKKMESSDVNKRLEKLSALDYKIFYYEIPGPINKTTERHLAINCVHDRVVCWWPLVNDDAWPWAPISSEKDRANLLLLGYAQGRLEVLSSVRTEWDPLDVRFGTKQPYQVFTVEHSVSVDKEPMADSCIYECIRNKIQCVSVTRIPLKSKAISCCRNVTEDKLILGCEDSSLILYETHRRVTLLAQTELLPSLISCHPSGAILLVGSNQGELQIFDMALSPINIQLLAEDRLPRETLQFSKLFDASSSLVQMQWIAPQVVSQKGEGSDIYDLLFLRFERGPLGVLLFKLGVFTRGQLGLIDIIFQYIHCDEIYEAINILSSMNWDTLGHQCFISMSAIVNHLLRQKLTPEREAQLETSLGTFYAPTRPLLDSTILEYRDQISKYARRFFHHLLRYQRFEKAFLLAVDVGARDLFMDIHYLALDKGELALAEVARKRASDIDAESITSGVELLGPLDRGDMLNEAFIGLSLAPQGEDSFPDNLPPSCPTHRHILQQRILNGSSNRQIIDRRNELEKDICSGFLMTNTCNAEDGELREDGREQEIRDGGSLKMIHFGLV
The experiment in a line: two-hybrid; yeast strain AH109, Matchmaker Two-Hybrid System 3 (pGADT7 and pGBKT7 cotransformed); growth on SD/-Ade/-His/-Leu/-Trp with X-alpha-Gal taken as positive.

Experiment [2] has as its target Dsh-myc (dsh-myc transgene) (Drosophila) (UniProt P51140). In words: co-IP; 150-200 third instar wing discs of transgenic flies; lysis buffer 50 mM Tris HCl pH 7.5, 150 mM NaCl, 1% Nonidet P40, 0.5% deoxycholate; antibody (rabbit GFP or rabbit Myc) and protein A agarose; western blot.
Experiment [3] deals with Dishevelled (Dsh), full length, yeast two-hybrid fusion (Drosophila) (UniProt P51140). The experiment in a line: two-hybrid; yeast strain AH109, Matchmaker Two-Hybrid System 3 (pGADT7 and pGBKT7 cotransformed); growth on SD/-Ade/-His/-Leu/-Trp with X-alpha-Gal taken as positive.

B1: human Intu (in homolog), yeast two-hybrid fusion (protein, UniProt Q9ULD6 1-942)
chain: MASVASCDSRPSSDELPGDPSSQEEDEDYDFEDRVSDSGSYSSASSDYDDLEPEWLDSVQKNGELFYLELSEDEEESLLPETPTVNHVRFSENEIIIEDDYKERKKYEPKLKQFTKILRRKRLLPKRCNKKNSNDNGPVSILKHQSNQKTGVIVQQRYKDVNVYVNPKKLTVIKAKEQLKLLEVLVGIIHQTKWSWRRTGKQGDGERLVVHGLLPGGSAMKSGQVLIGDVLVAVNDVDVTTENIERVLSCIPGPMQVKLTFENAYDVKRETSHPRQKKTQSNTSDLVKLLWGEEVEGIQQSGLNTPHIIMYLTLQLDSETSKEEQEILYHYPMSEASQKLKSVRGIFLTLCDMLENVTGTQVTSSSLLLNGKQIHVAYWKESDKLLLIGLPAEEVPLPRLRNMIENVIQTLKFMYGSLDSAFCQIENVPRLDHFFNLFFQRALQPAKLHSSASPSAQQYDASSAVLLDNLPGVRWLTLPLEIKMELDMALSDLEAADFAELSEDYYDMRRLYTILGSSLFYKGYLICSHLPKDDLIDIAVYCRHYCLLPLAAKQRIGQLIIWREVFPQHHLRPLADSSTEVFPEPEGRYFLLVVGLKHYMLCVLLEAGGCASKAIGSPGPDCVYVDQVKTTLHQLDGVDSRIDERLASSPVPCLSCADWFLTGSREKTDSLTTSPILSRLQGTSKVATSPTCRRTLFGDYSLKTRKPSPSCSSGGSDNGCEGGEDDGFSPHTTPDAVRKQRESQGSDGLEESGTLLKVTKKKSTLPNPFHLGNLKKDLPEKELEIYNTVKLTSGPENTLFHYVALETVQGIFITPTLEEVAQLSGSIHPQLIKNFHQCCLSIRAVFQQTLVEEKKKGLNSGDHSDSAKSVSSLNPVKEHGVLFECSPGNWTDQKKAPPVMAYWVVGRLFLHPKPQELYVCFHDSVTEIAIEIAFKLFFGLTL
On to B1, for which, in experiment [1], the binding result was “binds”.

B2: Frtz expressed from a UAS transgene driven by ptc-Gal4 (UAS-frtz in the legend, UAS-(myc)6-frtz in the methods) (protein, UniProt Q9VQ36 1-951)
chain: MLLSETHFWTTLREDVVRIKSQDLGAFRYLRQRDKEQEQQDLACLAKRDYTERRNGLAVLKNSGRKSTGRLKDNLKKLEDLLRQHRIIHSEWQDAAQVLLLFSHGLIAHICVDIYTGDILRMVFEKYLVGKLASEVITDAFFTRSHIVLAYNTNQLTVVHLQRPNARSQGPEKIANMDPRIFHVIIPGATERKLSRHLTVNASFDLFVVWTQSSQNEVYPWRPTIRDQDRANIHVFKIKGLQLESIAYCWSENDPLCVDFLRSSESQIITLEQKVSRKGDISAEICSYELAAGKMQRTAITSIPMGAQICSFAFSPDQEKLFLGSVDRNICLHDLVQQSTKYANQIEIVPNQCAWHCDSAMLCVANERSVLQCFDLALATIGHQLVSENVTPSSLLDLSHYFVAQPTLLSVAFSRKPDLSTFKHTYAQTDCLLLLVYEQGPLACMRIFGGTGMRGDIHNSGLTADVIADKYLRLQQPDRAVNVLAALNWETYGAMCLITLHKIANYVFFGGDQRRPRIELMARALKTFAHTLSEETKDEFSDQVYDLKRRFCFYLLRKNLFAEAFEIAQDVADYDIFMDLYNLTKCISSLSEFAQVAFSQAAAIIHEEDRANGNLSLTCDLRSESACSLSTCSDMLRGQGAGTAPETGLGASQPQSQQVLKNYVPPLPSFKSKVFNAEMIKINIPKPELRPPLPKVSIAPPTSSLASLTLKSNSSLQQAPAKSLHPNGNLWSQDVPDQTVGLPMASSPLPRLPPSNIPDQSAQLGQFSTMPASPPPTGSYQPKFYQHPLVSGNIPAMLPSLTSEDYQKRLLQKKPTASILSNPANPAPTNGEAPATPAKSQTAEKNKVKFSDTIQVAVVPEIPRKEKPMPPKRNGYSRPAARHLTNPKKELADSLPLCHPNDEYLKDFNPITTNVTKPPIRRREEEPKSSSKGGNSSSSSSSIKVVHFGVV
As for B2, the binding result in experiment [2] is given as “binds”.

B3: Inturned (In), yeast two-hybrid fusion (protein, UniProt Q9VPH0 1-869)
chain: MRKSPASLPSEAFSSSNSSLSNSYSDGSDLANWEEYVSTDGSLFYMEYVRCEKTGVSAERRVEFMRRSLRLGKKSSRRQPHSNNQNQSQNQNQSHGPSRLDSQTEPQEFRFSQFKTAAPDPKKLDLVITAADRFRFGRRSTAVESILGFRVLPFPDQPECLMVDGFVHDVSALQHGIKRGDWFRSLNGIEVYASNVDELLKQFVEPTQVCLGFQSCGAASAVSPTDPGYNRNVREEQVCKVENFPMFTEKFEQMLITEGNFGIPGSSVDIRMPFAMLLLPPECYQHEQQQDSLYYFPEIPDNFLFKARGSFLTLHAVLSELHTQPLSSRLLVDQVQYHVNYRQLNGFLVLFAYAGGLCCAAECSLRSDELIGYIRFSLPGLVLESFNQEREPGNSSRLKLFLRHFCEIQRTRLVARCHGHIRFEELLGQSRSLPLPKEAQLRIFDALSEMEAMDYRNWNDEPLTTHREFFIYGSALYYDGFLVASLLPPEVRVSVEGFLRCRGIFELLGAAPGIKVREMYVWEEIVLPSATGRYFLTICTKNHLSLAVILKIFDAPDMAPDAVVGPSLFYIEEIQETLDHLVQCGIESLAMFWSVSNKRPEVLDATASESRDQEKEPNNRLESFLKQKLTVLSPSVEEEAQLCSSLGGSSIHSLTPSEDESCRRRLTPIHGTAEDSDSGSDWENFAVQHPLHYGLNLGAESHSQSQMTESMWKEINNVVPVKISAGWKNSVLHYVYIDIANGSLFAPFTDSSENSNYLSEIRQACHIIHAVLQKSKHYRRHLSESSRAQTNSNGHSSHTVSLVKEHGMILEVSTQPKSDGQSQSSTSSRFVVVGRLFQSPAKEVYVCHRSDVPQNIVEMAFRLSFFSMG
Regarding B3, in experiment [3], the binding result is “no binding”.
